Source: PubChem BioAssay AID1030 (National Center for Advancing Translational Sciences (NCATS), 2008)
Hit rate of the full screen: of about 220,000 compounds, about 16,000 (7.3%) were called active. This list was built around the results that the source calls inconclusive (neither active nor inactive); the mix of calls is not that of the screen. The call rests on the fitted dose curve; in most records, active means well fitted inhibition curve with a large enough effect (not every such curve was filed as active); inconclusive means small, poorly fitted or top-dose-only effect, or another doubt; inactive means no such curve, though single readings can be large or run the other way. Potencies beside an inconclusive call are fits to weak or partial responses and may not hold up.

Target: Aldehyde dehydrogenase 1A1 (Homo sapiens) (UniProt P00352)
Chain of UniProt P00352 (P00352 whole entry, looked up): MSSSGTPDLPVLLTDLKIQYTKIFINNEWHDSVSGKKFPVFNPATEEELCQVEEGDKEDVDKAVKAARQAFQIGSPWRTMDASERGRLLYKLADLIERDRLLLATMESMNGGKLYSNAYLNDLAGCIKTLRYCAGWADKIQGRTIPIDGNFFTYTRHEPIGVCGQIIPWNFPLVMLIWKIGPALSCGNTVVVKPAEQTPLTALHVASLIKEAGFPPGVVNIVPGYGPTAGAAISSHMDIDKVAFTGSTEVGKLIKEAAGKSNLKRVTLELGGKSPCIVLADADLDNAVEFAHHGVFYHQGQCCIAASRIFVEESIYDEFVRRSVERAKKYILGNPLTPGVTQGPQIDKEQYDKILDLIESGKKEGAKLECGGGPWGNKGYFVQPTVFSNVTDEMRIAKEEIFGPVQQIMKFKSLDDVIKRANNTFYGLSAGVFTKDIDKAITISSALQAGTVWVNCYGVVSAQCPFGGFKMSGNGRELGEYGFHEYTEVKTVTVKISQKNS
Assay: qHTS Assay for Inhibitors of Aldehyde Dehydrogenase 1 (ALDH1A1);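 on activity, negative = inhibition: plate controls were no enzyme wells and a reference inhibitor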
Settings: Purified ALDH1A1, NADH fluorescence, propionaldehyde substrate; series mostly up to 75.3 µM
Potency means the concentration at half of the fitted maximal effect; tags describe the fitted curve by direction and shape.

Potency, inconclusive:
COc1ccc2[nH]c(=O)c(CN(CCO)C(=O)NCc3ccccc3)cc2c1 25.1 µM [inhibitor, partial curve]
Cc1ccc(O)c(N=CC2=C(O)c3ccccc3C2=O)c1 39.8 µM [inhibitor, single point]
CCN1C(=O)[C@H]2[C@H]3[C@H](O)[C@H](O)C/C(=N/OC[C@@H]4O[C@H](c5ccccc5)C=C[C@@H]4Oc4ccc(OC)cc4)[C@@H]3CC[C@@H]2C1=O 3.55 µM [inhibitor, single point]
COc1ccc(-c2cc(C(=O)Nc3cc(C)n(Cc4ccc(Cl)cc4)n3)no2)cc1OC 37.7 µM [inhibitor, single point]
CC1(C)CC(=O)C2=C(C1)c1c(ccc3ccccc13)NC2c1ccco1 (stereo unspecified) 28.2 µM [inhibitor, partial curve]
C=CC[n+]1c(/C=C2\C=Cc3cc(C)ccc3N2CC)ccc2ccccc21 31.6 µM [inhibitor, single point]
CC1CCc2c(sc3nn[nH]c(=O)c23)C1 (stereo unspecified) 39.8 µM [inhibitor, single point]
Cn1c(=O)c2ncn(CC(=O)NCCC3=CCCCC3)c2n(C)c1=O 25.1 µM [inhibitor, single point]
CCC(=O)Nc1ccc(Cl)c(NC(=S)NC(=O)c2cc3ccccc3o2)c1 28.2 µM [inhibitor, single point]
COc1ccc(CN(Cc2ccccn2)C(=O)CN2C(=O)C(C)Oc3ccccc32)cc1 (stereo unspecified) 39.8 µM [inhibitor, single point]
O=C1CC2CS(=O)(=O)CC2N1c1ccc(Cl)cc1Cl (stereo unspecified) 39.8 µM [inhibitor, single point]
CS(=O)(=O)N1CCN(c2ccc(NC(=O)C(c3ccccc3)c3ccccc3)cc2)CC1 39.8 µM [inhibitor, single point]
COc1ccc(-c2ocnc2C(=O)NCc2nn(-c3ccccc3)nc2C)cc1 39.8 µM [inhibitor, single point]
CCN1CCc2nc(NC(=O)c3ccc(S(=O)(=O)N(C)C)cc3)sc2C1 39.8 µM [inhibitor, single point]
C=CCN1C(=O)C(C)S/C1=N\S(=O)(=O)c1ccc(Cl)cc1 (stereo unspecified) 2.51 µM [inhibitor, full curve]
O=C(CCCn1c(=O)[nH]c2ccccc2c1=O)NC1CCCCCC1 35.5 µM [inhibitor, single point]
O=C(Nc1cnc2ccccn2c1=O)c1ccc(F)cc1 39.8 µM [inhibitor, single point]
O=C(COC(=O)c1ccccc1NC(=O)c1ccco1)NCC1CCCCC1 14.1 µM [inhibitor, partial curve]
O=C(C=C1CCN(c2ncc(C(F)(F)F)cc2Cl)CC1)NNC(=O)Nc1ccccc1 31.6 µM [inhibitor, single point]
O=C(O)c1ccc(N2CCCC2=O)cc1 39.8 µM [inhibitor, single point]
CC(=O)c1sc(N/N=C\c2ccc(Br)cc2)nc1C 39.8 µM [inhibitor, single point]
Cc1ccc(C(=O)Nc2oc(-c3ccccc3)cc2C#N)cc1 35.5 µM [inhibitor, single point]
C/C(=N\NC(=O)c1ccc(CN2CCc3ccccc3C2)cc1)c1ccccc1O 35.5 µM [inhibitor, single point]
Cc1oc2c(CN3CCOCC3)c(O)ccc2c(=O)c1-c1ccc(Cl)cc1 28.2 µM [inhibitor, partial curve]

Potency, inactive:
O=C(NNC(=O)c1cccnc1SCc1cccc([N+](=O)[O-])c1)c1ccccn1
Cc1cc(/C=N/n2cnnc2)c(C)n1-c1cccc(C(=O)O)c1
CC(C)(C)c1ccc(OCc2cnc(Cl)s2)cc1
O=S(=O)(c1ccc2c(c1)OCCO2)N1CCC(n2nnc3cc(C(F)(F)F)ccc32)CC1
O=C(CSc1cccc[n+]1[O-])Nc1cc(S(=O)(=O)N2CCOCC2)ccc1N1CCOCC1
NC(=O)NC(=O)COC(=O)CC12CC3CC(CC(C3)C1)C2
COCC(=O)N1CCCC(CNS(=O)(=O)c2ccc(OC)cc2)C1 (stereo unspecified)
Cc1ccc(CO)cc1
CCN(CC)C(=O)C1CCN(Cc2cccc(OCc3ccccc3)c2)CC1
CC(C)Oc1ccc(C(=O)Nc2ccc(C(F)(F)F)n(C)c2=O)cc1
S=C(Nc1ccc(Br)cc1Cl)NN1CCOCC1
c1coc(CNc2nc3nonc3nc2NCc2ccco2)c1
COc1ccc(-n2nc3c(c2NC(=O)c2ccc(N4C(=O)CCC4=O)cc2)CSC3)cc1
Cc1cc(NC(=O)Cn2ccsc2=N)c([N+](=O)[O-])cc1C
COc1ccc(C(C(=O)OCCN(C)C)c2ccccc2)cc1 (stereo unspecified)
O=C(CSc1nnc(-c2ccccc2)o1)NC1CCS(=O)(=O)C1 (stereo unspecified)
COc1cc(-c2nn3c(-c4ccco4)nnc3s2)cc(OC)c1OC
CCc1ccc(NC(=O)CSc2nc3cc(C(=O)OC)ccc3c(=O)n2Cc2ccco2)cc1

Potency, active:
Cc1ccc2[nH]c(=O)c(CN(Cc3nnnn3Cc3ccccc3)C3CCCC3)cc2c1 20 µM
CCOc1cc2c(cc1/C=C1/NC(=O)N(CC(=O)OC)C1=O)OCO2 11.2 µM

activity, negative = inhibition, inactive:
COC(=O)C/C=C\[C@@H](C)[C@@H](/C=N\OC[C@@H](O)[C@H]1O[C@H]2OC(C)(C)O[C@H]2[C@@H]1O)OC -4.01% [at 13.5 µM]
CCOC(=O)CCN1C(=O)[C@H]2[C@H]3[C@H](O)[C@H](O)C/C(=N/NC(=O)OCc4ccc(OC)cc4)[C@@H]3CC[C@@H]2C1=O -10.2% [at 13.5 µM]
